# Laboratory results reported in the supplement of paper PMC11417369.
# ± gives the standard deviation of the averaged measurements. The list shows a part of the results.
# System: PfAP2-G AP2 domain (GST-tagged)
# Test: gcPBM binding intensity (ln(normalized median fluorescence intensity)); higher = stronger DNA binding
# In short: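 The binding buffer was 1× PBS containing 1% milk, 0.2 mg/ml BSA, 0.5% salmon testes DNA and 0.03% Triton X-100. In it, GST-tagged P. falciparum DNA-binding domains expressed in E. coli were applied for 1 h to an Agilent 4 × 180k array of primer-extended double-stranded 36-bp intergenic genomic probes plus negative controls. Binding intensity, read with Alexa488 anti-GST antibody and a 488 nm scan, is the highest Masliner-normalised natural-log median intensity across replicate spots of either probe orientation.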
row,Sequence,gcPBM binding intensity (ln)
1,ACCCTTTTATATAAGAGTACAAACGTATTATTAAAT [XGTACX_site2221],11.2 ± 0.76
2,AATATTAAAAACAAAACACACAAAAAAAAATAAAAT [CACACA_site702],9.94 ± 0.071
3,ATATATGACTAATAAAGTACATACTTCATATAATTA [XGTACX_site6699],11.2 ± 0.74
4,TATATTATATATATACTGCACTGTTTTACAAAATTA,10.1 ± 0.26
5,ATATTAATTTCTCATGCATGTTCTACCCAATTGTAA [TGCATGCA_site355],10.1 ± 0.071
6,TTTTGTTATTATGAAGTGCATTTATGTTCATGTCTA,10.1 ± 0.21
7,AAAAAAAAAAAAAATTCACACAAGACTACTACATTT [CACACA_site4195],9.77 ± 0.13
8,AAAATCTAATATAATGCACACATAAAAAAAAATCAA [CACACA_site9211],10 ± 0.2
9,CTAAAATGTAAAAACGCACACATAATATTATAAAAA [CACACA_site2788],10.2 ± 0.23
10,AAAGCATGTTAATATGTATAAATACTGATCATTCAC [GTGCAC_negctrl_site576],9.865 ± 0.049
11,TTTTAGTTATTGTATTATTATTAATATATAATATCT [CACACA_negctrl_site1528],9.79 ± 0.12
12,CTTGTCATTTGGCACACACACATGTATAGGTTATTA [CACACA_site5656],10.4 ± 0.2
13,TATATAAATAAACACACACACACCTTATAATTATTA [CACACA_site9345],9.94 ± 0.13
14,AACAGATAATATAAAAAAAAAAAAAAAAATAATTAA [GTGCAC_negctrl_site69],9.44 ± 0.028
15,TGAATAAATCAAAGCACACATACACAGACATATATA [CACACA_site4316],10.1 ± 0.16
16,TTTTGTACATCTTTTGCACACGTAATGTTATTATAA [CACACA_site1259],11.4 ± 0.98
17,AATAAATAAAAATGCACACAGTTAACATGTTGAATT [CACACA_site4795],10.005 ± 0.007
18,ATCTTAATTTTTGAAGGTACACACTAATATATTAAA [XGTACX_site2292],11.1 ± 0.76
19,ATATTTTATTATATAGGTACACATAATTTCATGTAA [XGTACX_site415],11.2 ± 0.65
20,TATATAGTAAATATTTGTACATAATAAAATATATGT [XGTACX_site7873],10.8 ± 0.48
21,TATAATATAAAAATGAGTACATAGATAATAATATTT [XGTACX_site2376],11.3 ± 0.74
22,TTTTTTTTTTATTAATGTACAAGATATATAATGTTA [XGTACX_site4809],10.8 ± 0.65
23,AAAATTTAATATAATGCACACATAAAACAAAAACAA [CACACA_site8071],10.3 ± 0.23

row,Sequence,gcPBM binding intensity (ln)
1,AAATGTAGAAAAAGTTGTACACTGTTTCAAAAATAA [XGTACX_site1063],11.6 ± 0.97
2,AATGATACACATATATGTACATATATATATATATAT [XGTACX_site5391],11.2 ± 0.49
3,TGCAATATATCAAAGTGTACATGCAATAAAAAAAAA [XGTACX_site652],11.1 ± 0.71
4,ATATGGATTATACATACATGCATACATACATACATA [TGCATGCA_site475],10.2 ± 0.23
5,TATATACATATATGCACACAAAAAAATATATATTTT [CACACA_site1729],10.1 ± 0.13
6,ATAATTAAAATTAAATGTACTTTTTTATATATTTTT [XGTACX_site2209],11.4 ± 1
7,AATTTCTTTTTCGATATACACACTGTATGTGTCTAA [CACACA_site3975],10.01 ± 0.028
8,TTTAAAGTTTTATACACACACCAAAGTTATTCTAAT [CACACA_site6432],9.99 ± 0.014
9,CAATGAAAAATAATGAGTACATAGTTAATAAAGATA [XGTACX_site72],11.3 ± 0.54
10,TAATATATATATATGGTGCATTTAATTTATATATAA,9.97 ± 0.33
11,TATGAAATTTTAATTACACACAGGAAAATAAAATGT [CACACA_site8430],10.1 ± 0.18
12,GCCCACACGAACCATGCATGCCACGATATAAACCAC [TGCATGCA_site322],10.3 ± 0.26
13,TTTTTTACAGAAAAATATTAAAATTATAAATGTGAA [GTGCAC_negctrl_site451],9.88 ± 0.16
14,TTATTTTTCTTTATTGGTACACACGAAAAAAAAATT [XGTACX_site6482],11.1 ± 0.76
15,TTATAATATATATAAAAGAAAAAAAATTATAATATA [CACACA_negctrl_site90],9.61 ± 0.2
16,AAAAAAAAAAAAAGCTGTACAATTAAAGACAAACCT [XGTACX_site8610],11.1 ± 0.79
17,CTTTAACCATATATGTGTACGTATTTTATTCATATT [XGTACX_site6212],11.8 ± 1.1
18,ATATATATTTTTAATTGTACAGAATTAAAAATATTG [XGTACX_site1967],10.8 ± 0.54
19,AAGAAGTGGAAAATATACTCCACATATATATATGTG [CACACA_negctrl_site304],10.4 ± 0.2
20,AAAAAACAATTTGTGTGTACACATGATACGTTCGAT [XGTACX_site4112],11.6 ± 0.89
21,ATATATATATAATGTTGTACATAAATATTATATTTA [XGTACX_site5225],11.2 ± 0.7
22,TTTTTATTTATTCTCTTTGTATTATAAAATAAAAGC [XGTACX_negctrl_site253],10.07 ± 0.064
23,ACATGTGAATTTTAGGTGCACTTGTAATTTAACATT,10.3 ± 0.23

row,Sequence,gcPBM binding intensity (ln)
1,GGAAAAATATAATATGCATGTTATTATTTTTTTATA [TGCATGCA_site836],9.43 ± 0.24
2,TTCTTCTGTTTTATTACACACCATTTTGTGTATACA [CACACA_site7059],10.4 ± 0.23
3,TCTTAATCGTATTATTACTATAATTATATAATATTT [CACACA_negctrl_site1594],9.945 ± 0.078
4,TATGTATATACATAAACATGCAAAAACAATATCTTA [TGCATGCA_site950],9.85 ± 0.014
5,TATTTATTTATTTAATGTACAAAAGAACAAGAATTT [XGTACX_site2248],10.9 ± 0.56
6,GATCTAAAAACAAGGTGTACAAGAAAAAAAAAAAAA [XGTACX_site7577],11.3 ± 0.89
7,ACAAAAGGGGAATACACACACATATATATATATATA [CACACA_site2215],10.2 ± 0.34
8,ATATATATATTATATAGTACAGAGTATACTATTATA [XGTACX_site1893],11 ± 0.79
9,AACGATATATGTACTACACACATTATGTCATCCTAT [CACACA_site2464],11.5 ± 0.83
10,CAAAAAGGAATGTATGCACACAATTGATTTTAACTC [CACACA_site1468],10 ± 0.13
11,TAAAACAATATAAAATGTACAGAATTTTTTTTTCTT [XGTACX_site6820],10.7 ± 0.4
12,CATAAATAATATATTTGTACGAATAAAATTTGTTCA [XGTACX_site3445],10.8 ± 0.45
13,AACTGATTATTTTTTTGTACATATATAATAATATAT [XGTACX_site5953],10.9 ± 0.47
14,TTCTTTTATGATAATTGTACCCTTTTTAAAAAGAAA [XGTACX_site7815],11.5 ± 0.95
15,ATAATGAAAAGAAAGGGTACAAAAAAAAAAAAAAAT [XGTACX_site3350],11.2 ± 0.92
16,TTTTTTTTCAATGGCACACATTTTAGATTTATGCTT [CACACA_site4735],10.1 ± 0.18
17,ATATATATTTTATACGCATGTAATTATTATGTGGTC [TGCATGCA_site45],10.5 ± 0.13
18,ATAACCTAATAATACACACACATGAATATAAATAAC [CACACA_site6584],10.2 ± 0.18
19,AAACAATTTGGGTGTACACATGATACGTTCGATGAG [CACACA_site5160],11.6 ± 0.87
20,ATATTATACATTTATACACACATAAAAAGACAAAAA [CACACA_site3565],10.3 ± 0.3
21,ATAATTTATATTACTTGTACATATTTATATGAACGA [XGTACX_site3610],11.1 ± 0.65
22,TGTAATATTTTTCATGCATGCTCTTCTTTTACATAA [TGCATGCA_site144],10.05 ± 0.049
23,TTATATATATATATATGTACACATATATAACATGAT [XGTACX_site6643],11.4 ± 0.91

row,Sequence,gcPBM binding intensity (ln)
1,TATATTAAACAATATACACACATTAATGTATCCATA [CACACA_site5523],9.975 ± 0.064
2,CTTAATTTTTTTTAATGTACATACATATAAACCTTT [XGTACX_site2233],11.2 ± 0.67
3,AGTTATATGTACTACACACGTACACAAAATAAGATA [CACACA_site3719],11.6 ± 0.75
4,AAAATTAAAAATAACACACACATATTTATATTTATA [CACACA_site7329],9.66 ± 0.042
5,AAGGAGAAATATTGCACACGTGCAAAATGGTATGAG [CACACA_site259],10.15 ± 0.064
6,TATTCTTTTATGAATACACACATATACGAAAATATT [CACACA_site6585],10.2 ± 0.26
7,AAATGTTAAAAAGAGAAAAACAATAAAAAACAATTA [CACACA_negctrl_site1044],9.61 ± 0.31
8,AGGTGTCATAGATGCACACAAAAGTAACACGCACCT [CACACA_site4418],10.26 ± 0.049
9,AAAAGGTTATCAAAATGTACGAAATGTTACAAAAAT [XGTACX_site6215],10.6 ± 0.37
10,GGACTATACAGTTATACACACACATATATATATAAT [CACACA_site7991],10.2 ± 0.17
11,ACTACGTGTCAAAAATATTAATTACAAATGAATAAA [GTGCAC_negctrl_site248],9.92 ± 0.41
12,ATATGCTATTAATTATGTACATATATATATATATAT [XGTACX_site4901],11.2 ± 0.71
13,GTACATTATATATATACACACATACATAATAAAGAA [CACACA_site5528],10.8 ± 0.39
14,ATGAACAAGGGGCACACACACATTATGACTAATTTA [CACACA_site3204],10.7 ± 0.52
15,ATGCATACACTTATATGTACACATTTACATATTATT [XGTACX_site2841],11.5 ± 0.84
16,AATAAATAAATATATTGTACATATATATATATATAT [XGTACX_site8627],11 ± 0.53
17,CGAAAGGAAATATAACGTACATAAGATTATATTCAC [XGTACX_site3868],11.3 ± 0.83
18,AACATACTCACGAACATACACACGGACATACATACG [CACACA_site603],11.1 ± 0.49
19,TATTAATATATAGTAGTGCAATAAAGATATACTGAA,10.2 ± 0.11
20,AAAACAAACGGACACACACACATATATATATATATA [CACACA_site5924],11 ± 0.74
21,ACATGTAAATTTACATGTACATGTAACACTTAATAT [XGTACX_site4575],11.2 ± 0.67
